Reference: the supplement of paper PMC8728848
Some of the results follow.

Tests used:
Assay in all cases: glycan array binding signal (z-score within array); higher = stronger binding
Conditions in all cases: glycan notation: IUPAC condensed, linker removed
[1] = molecular target: Neu5Ac(a2-3)Gal(b1-4)GlcNAc(b1-6)GalNAc
Method in brief: (§1)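 Columns mapping to the same glycan were averaged after glycan names were converted to IUPAC-condensed notation. The data come from 3228 arrays in the Consortium for Functional Glycomics database, limited to those with an available protein sequence. Binding is reported as a within-array Z-score averaged across arrays of one protein sequence and across linkers.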

[2] = molecular target: Neu5Ac(a2-3)Gal(b1-4)GlcNAc(b1-6)[Gal(b1-3)]GalNAc
Method in brief: as §1

[3] = molecular target: Neu5Ac(a2-3)Gal(b1-4)GlcNAc(b1-6)[Neu5Ac(a2-3)Gal(b1-3)]GalNAc
Method in brief: as §1

[4] = molecular target: Neu5Ac(a2-3)Gal(b1-4)GlcNAc6S
Method in brief: as §1

[5] = molecular target: Neu5Ac(a2-3)Gal(b1-4)[Fuc(a1-3)]GlcNAc
Method in brief: as §1

[6] = molecular target: Neu5Ac(a2-3)Gal(b1-4)[Fuc(a1-3)]GlcNAc(b1-2)Man
Method in brief: as §1

[7] = molecular target: Neu5Ac(a2-3)Gal(b1-4)[Fuc(a1-3)]GlcNAc(b1-3)Gal
Method in brief: as §1

[8] = molecular target: Neu5Ac(a2-3)Gal(b1-4)[Fuc(a1-3)]GlcNAc(b1-3)Gal(b1-4)GlcNAc
Method in brief: as §1

[9] = molecular target: Neu5Ac(a2-3)Gal(b1-4)[Fuc(a1-3)]GlcNAc(b1-3)Gal(b1-4)[Fuc(a1-3)]GlcNAc(b1-3)Gal(b1-4)[Fuc(a1-3)]GlcNAc
Method in brief: as §1

[10] = molecular target: Neu5Ac(a2-3)Gal(b1-4)[Fuc(a1-3)]GlcNAc(b1-3)GalNAc
Method in brief: as §1

[11] = molecular target: Neu5Ac(a2-3)Gal(b1-4)[Fuc(a1-3)]GlcNAc(b1-6)[Gal(b1-3)]GalNAc
Method in brief: as §1

[12] = molecular target: Neu5Ac(a2-3)Gal(b1-4)[Fuc(a1-3)]GlcNAc(b1-6)[Neu5Ac(a2-3)Gal(b1-3)]GalNAc
Method in brief: as §1

[13] = molecular target: Neu5Ac(a2-3)Gal(b1-4)[Fuc(a1-3)]GlcNAc6S
Method in brief: as §1

[14] = molecular target: Neu5Ac(a2-3)Gal6S(b1-4)GlcNAc
Method in brief: as §1

[15] = molecular target: Neu5Ac(a2-3)Gal6S(b1-4)[Fuc(a1-3)]GlcNAc
Method in brief: as §1

[16] = molecular target: Neu5Ac(a2-3)GalNAc
Method in brief: as §1

[17] = molecular target: Neu5Ac(a2-3)GalNAc(b1-4)GlcNAc
Method in brief: as §1

[18] = molecular target: Neu5Ac(a2-3)[GalNAc(b1-4)]Gal(b1-4)Glc
Method in brief: as §1

[19] = molecular target: Neu5Ac(a2-3)[GalNAc(b1-4)]Gal(b1-4)GlcNAc
Method in brief: as §1

[20] = molecular target: Neu5Ac(a2-3)[GalNAc(b1-4)]Gal(b1-4)GlcNAc(b1-3)GalNAc
Method in brief: as §1

[21] = molecular target: Neu5Ac(a2-3)[Neu5Ac(a2-6)]GalNAc
Method in brief: as §1

[22] = molecular target: Neu5Ac(a2-6)Gal
Method in brief: as §1

[23] = molecular target: Neu5Ac(a2-6)Gal(b1-3)GlcNAc(b1-3)[Gal(b1-4)GlcNAc(b1-6)]Gal(b1-4)Glc
Method in brief: as §1

[24] = molecular target: Neu5Ac(a2-6)Gal(b1-4)Glc
Method in brief: as §1

[25] = molecular target: Neu5Ac(a2-6)Gal(b1-4)GlcNAc
Method in brief: as §1

[26] = molecular target: Neu5Ac(a2-6)Gal(b1-4)GlcNAc(b1-2)Man
Method in brief: as §1

[27] = molecular target: Neu5Ac(a2-6)Gal(b1-4)GlcNAc(b1-2)Man(a1-3)Man(b1-4)GlcNAc(b1-4)GlcNAc
Method in brief: as §1

[28] = molecular target: Neu5Ac(a2-6)Gal(b1-4)GlcNAc(b1-2)Man(a1-3)[Gal(b1-4)GlcNAc(b1-2)Man(a1-6)]Man(b1-4)GlcNAc(b1-4)GlcNAc
Method in brief: as §1

[29] = molecular target: Neu5Ac(a2-6)Gal(b1-4)GlcNAc(b1-2)Man(a1-3)[GlcNAc(b1-2)Man(a1-6)]Man(b1-4)GlcNAc(b1-4)GlcNAc
Method in brief: as §1

[30] = molecular target: Neu5Ac(a2-6)Gal(b1-4)GlcNAc(b1-2)Man(a1-3)[GlcNAc(b1-4)][Neu5Ac(a2-6)Gal(b1-4)GlcNAc(b1-2)Man(a1-6)]Man(b1-4)GlcNAc(b1-4)GlcNAc
Method in brief: as §1

B1: SialidaseA (Arthrobacter ureafaciens) (protein)
chain: MRSNSTSAPSLVRRAATGVLTCAVSIGLLAGLGLPAQAAPTPPNSPTLPPGSFSETNLAADRTAANFFYRIPALTYLGNDVVLAAWDGRPGSAADAPNPNSIVQRRSTDGGKTWGPVQVIAAGHVADASGPRYGYSDPSYIYDAEANKVFAFFVYSKDQGFGGSQFGNDDADRNVISSAVIESSDAGVTWSQPRLITSVTKPGTSKTNPAAGDVRSNFASSGEGIQLKYGPHKGRLIQQYAGDVRQADGSNKIQAYSVYSDDHGVTWHKGANVGDRMDENKTVELSDGRVLLNSRDNANRGYRKVAVSTDGGATYGPVSQDTELPDPANNGAIARMFPNAAQGSADAKKLIFTNANSKTGRENVSARVSCDDGETWPGVRTIRSGFSAYSTVTRLADGKFGVLYEGNYTDNMPFATFDDAWLNYVCAPLAVPAVNIAPSATQEVPVTVTNQEATTLSGATATVYTPSGWSATTVPVPDVAPGASVTVTVALTAPADASGPRSLNAAFTTADGRVSQFTFTATTPVAPQVGLTITGSAPARDVAANPYQAGDVLGYTLNVKSTANVAANSVPLTGTFDSGFLPPAAPNCRYNNLAAGASYNCTTAKHTITAADMERGYFVPEATFSITSTTTPSLTKTVQFTGAAVALRDGLISADISGARTDVGRDLATRPYAAGELVPYAFTVKNTSPFVEQVVPTAGNFSPFLPAGAGNCRYLSLPAGQSYECATPRHAVTAEEVEQGFFVPDTTWEVSAAGQSTRTYRINGGEVDLLVRDAALSATVVAEWKDADGDRFASAGDPVTFTYTVGNAGNVALTGLEAPDAGISLPFLAPGDTATATREHVLTAADVAGGSLAASAFEATARNGSKEVTATAEGQPLELKVQPAQPSKEPELTVQDLEDQTPPFDLGTAFKYRTGQKVSLAGLEYGQWYYVYLNKTGYRLGWMFPTTGDTVEFILPPEVRNGRDDVVVLDKDGRRVSFDRLQVTPKGEKI
- glycan array binding signal (z-score) [1]: -0.046
- glycan array binding signal (z-score) [2]: -0.308
- glycan array binding signal (z-score) [3]: 1.78
- glycan array binding signal (z-score) [4]: 2.24
- glycan array binding signal (z-score) [5]: 0.484
- glycan array binding signal (z-score) [6]: 1.2
- glycan array binding signal (z-score) [7]: 1.35
- glycan array binding signal (z-score) [8]: 2.56
- glycan array binding signal (z-score) [9]: 1.29
- glycan array binding signal (z-score) [10]: 1.91
- glycan array binding signal (z-score) [11]: 0.934
- glycan array binding signal (z-score) [12]: 0.718
- glycan array binding signal (z-score) [13]: 2.04
- glycan array binding signal (z-score) [14]: 2.1
- glycan array binding signal (z-score) [15]: 0.187
- glycan array binding signal (z-score) [16]: 0.621
- glycan array binding signal (z-score) [17]: 0.302
- glycan array binding signal (z-score) [18]: 1.29
- glycan array binding signal (z-score) [19]: 0.486
- glycan array binding signal (z-score) [20]: 0.725
- glycan array binding signal (z-score) [21]: 1.34
- glycan array binding signal (z-score) [22]: 1.04
- glycan array binding signal (z-score) [23]: -0.724
- glycan array binding signal (z-score) [24]: 0.53
- glycan array binding signal (z-score) [25]: 1.64
- glycan array binding signal (z-score) [26]: 0.518
- glycan array binding signal (z-score) [27]: 3.4
- glycan array binding signal (z-score) [28]: 0.214
- glycan array binding signal (z-score) [29]: 2.79
- glycan array binding signal (z-score) [30]: 2.08
